Source: PubChem BioAssay (NCATS)
“And” between values parts separate entries of the source, which are not always exact repeats. Equal values may be shown once. Some of the results follow. These are further read-outs of the screen, such as a control signal, another cell line or another target. No call is given for them. The list favours compounds with an active or inconclusive main result. Words in brackets tell the shape of the fitted curve; partial curves, single points and poor fits give uncertain potencies.

Test: qHTS Assay for Lipid Storage Modulators (AID 1519)
Details: Drosophila S3 cells, BODIPY lipid droplet/cell ratio, laser cytometry, cells loaded with oleic acid
In short: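 Cells seeded at 5,000 per well were treated with compounds over a concentration series and loaded with oleic acid (400 uM, as added). Lipid droplet fluorescence (488 nm excitation, 500-530 nm channel) was read by laser-scanning cytometry and normalized to 20 uM Triacsin C.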

[1] = measured here: cell count channel max response
[2] = measured here: lipid (BODIPY) channel AC50
[3] = measured here: lipid channel max response
[4] = measured here: cell number channel AC50
Tags give direction and shape of the fitted curve.

Row | SMILES | max response [1] | AC50 [2] | max response [3] | AC50 [4]
1 | NC(N)=Nc1nc(CSCC/C(N)=N\S(N)(=O)=O)cs1 | 22.4% | 39.8 µM [rising, single point] | 34% | 
2 | NCCCCN | 24.2% and 42.3% | 39.8 µM [rising, single point] and 44.7 µM [rising, single point] | 32% and 43.6% | 
3 | COc1ccc(C(=O)N2CCC3(CCN(C(=O)Nc4cccc(C#N)c4)CC3)CC2)cc1 | -5.79% | 3.98 µM [rising, partial curve] | -0.852% | 
4 | CC1OC(OCC2OC(Oc3c(-c4ccc(OCCO)c(OCCO)c4)oc4cc(OCCO)cc(O)c4c3=O)C(O)C(O)C2O)[C@@H](O)C(O)C1O (some centres undefined) | 17.5% | 39.8 µM [rising, single point] | 34% | 
5 | O=C(c1cnccn1)N1CCC2(CC1)CCN(c1cccc(-c3ccccc3)c1)CC2 | -4.48% | 0.0398 µM [rising, full curve, poor fit] | 9.26% | 
6 | CCOc1ccc(Cc2nccc3cc(OCC)c(OCC)cc23)cc1OCC | -26.4% | 14.1 µM [falling, single point] | -30.2% | 
7 | C[C@H]1[C@H](C)CC[C@]2(C(=O)O)CC[C@]3(C)C(=CCC4[C@@]5(C)C[C@@H](O)[C@H](O)[C@@](C)(CO)[C@@H]5CC[C@]43C)[C@H]12 (some centres undefined) | 31.3% |  | 22.5% | 31.6 µM [rising, single point]
8 | CC(Oc1ccc(O)cc1)(P(=O)(O)O)P(=O)(O)O | 16.5% | 2.51 µM [rising, full curve, poor fit] | 27.9% | 
9 | Cc1c(CC(C)(C)C(=O)O)n(Cc2ccc(Cl)cc2)c2ccc(F)cc12 | 62.5% |  | 76.2% | 39.8 µM [rising, single point]
10 | COc1ccc(C(=O)N2CCC[C@@]3(CCN(C)C3)C2)cc1 | 26.7% | 28.2 µM [rising, single point] | 37.4% | 
11 | COc1ccc2c(c1)c(CC(=O)OCC(=O)O)c(C)n2C(=O)c1ccc(Cl)cc1 | 21.5% | 39.8 µM [rising, single point] | 44.9% | 
12 | CN(C)c1ccc(-c2nc(NC3CCNCC3)c3ccccc3n2)cc1 | -22.1% | 39.8 µM [falling, single point] | -54.5% | 
13 | Cn1c(=O)c(CCc2ccccc2)nc2cnc(N3CCNCC3)nc21 | 12.7% | 0.0282 µM [rising, full curve, poor fit] | 18.2% | 
14 | O=C1OCCN1/N=C/c1ccc([N+](=O)[O-])o1 | -23.1% | 25.1 µM [falling, partial curve, poor fit] | -54.6% | 
15 | C[C@](O)(C(=O)Nc1ccc(S(=O)(=O)c2ccccc2)cc1)C(F)(F)F | -2.17% | 7.94 µM [falling, full curve, poor fit] | -30.8% | 
16 | NS(=O)(=O)c1cccc2c1c([N+](=O)[O-])cc1[nH]c(=O)c(=O)[nH]c12 | 14.3% | 0.00282 µM [falling, full curve, poor fit] | 23.5% | 
17 | COc1cccc(Cn2c(=O)c(-c3ccc(F)c(F)c3)nc3cncnc32)c1 | 27.2% | 0.0355 µM [rising, full curve] | 39.5% | 
18 | O=C(c1ccncc1)N1CCC2(CCN(Cc3cc(C(F)(F)F)cc(C(F)(F)F)c3)CC2)CC1 | 22.8% | 11.2 µM [rising, partial curve, poor fit] | 32.1% | 
19 | COc1ccc(C(=O)N2CCC[C@@]3(CCN(Cc4cc(C(F)(F)F)cc(C(F)(F)F)c4)C3)C2)cc1 | 15.3% | 3.16 µM [rising, partial curve, poor fit] | 22.9% | 
20 | O=S(=O)(c1ccccc1)N1CCC[C@@]2(CCN(C(c3ccccc3)c3ccccc3)C2)C1 | 3.25% | 0.251 µM [rising, full curve, poor fit] | 13.2% | 
21 | CO[C@@]1(NC(=O)Cc2cccs2)C(=O)N2C(C(=O)O)=C(COC(N)=O)CSC21 (some centres undefined) | 19.7% | 39.8 µM [rising, single point] | 32.4% | 
22 | NC(=O)c1ncn(C2OC(CO)C(O)C2O)c1N (centres undefined) | 21.6% | 39.8 µM [rising, single point] | 30.8% | 
23 | Nc1ncnc2c1[nH]c(=O)n2C1CC(O)C(CO)O1 (centres undefined) | 9.64% | 0.0398 µM [rising, full curve, poor fit] | 37.4% | 
24 | COc1ccc(C(=O)N2CCC3(CCN(Cc4nccs4)CC3)CC2)cc1 | 23.2% | 4.47 µM [rising, partial curve, poor fit] | 30.6% | 
25 | COCCn1c(=O)cnc2cnc(N(C)C)nc21 | 31.2% |  | 40.4% | 28.2 µM [rising, single point]
26 | O=c1c(O)c(-c2ccc(O)c(O)c2)oc2ccccc12 | -9.16% | 4.47 µM [rising, full curve, poor fit] | -16.9% | 
27 | COc1cccc(Nc2ncc3nc(CCc4ccccc4)c(=O)n(C[C@H]4CCCO4)c3n2)c1 | 10.3% | 0.0708 µM [rising, full curve, poor fit] | 4.67% | 

Row | SMILES | max response [1] | AC50 [2] | max response [3] | AC50 [4]
28 | Cc1cnc(CNc2cc(-c3ccccc3CN(C)C)ncn2)cn1 | 20.7% | 17.8 µM [rising, single point] | 31.6% | 
29 | CC(C)CN1CCCC2(CCN(C(=O)c3ccco3)CC2)C1 | 24.2% | 2.82 µM [rising, partial curve, poor fit] | 31% | 
30 | O=c1cc(-c2cc(O)c(O)c(O)c2)oc2cc(O)cc(O)c12 | -28.6% | 39.8 µM [falling, single point] | -38.6% | 
31 | Cn1c(=O)c(-c2ccccc2)nc2cnc(Oc3ccccc3)nc21 | 10.2% | 0.0282 µM [rising, full curve, poor fit] | 15.7% | 
32 | Cc1cc(O)cc(=O)o1 | 24.6% | 22.4 µM [rising, partial curve, poor fit] | 39.2% | 
33 | O=C(c1ccncc1)N1CCC2(CCCN(c3cccc(-c4ccccc4)c3)C2)CC1 | 19.5% | 0.355 µM [rising, full curve, poor fit] | 14.9% | 
34 | CS(=O)(=O)Nc1cccc(-c2ccc3ncnc(N4CCOCC4)c3c2)c1 | -22.5% | 39.8 µM [falling, single point] | -36% | 
35 | O=C(OCCOCCO)c1ccccc1Nc1cccc(C(F)(F)F)c1 | -20.8% | 20 µM [falling, single point] | -52.4% | 
36 | CN1CCN(c2ncc3nc(-c4cccs4)c(=O)n(C[C@H]4CCCO4)c3n2)CC1 | 18.2% | 0.0447 µM [rising, full curve, poor fit] | 23.8% | 
37 | COc1cc2ccc(=O)oc2c(OC)c1OC | 12.2% | 22.4 µM [rising, partial curve] | 31.6% | 
38 | CCCCC(=O)OC1CCC2C3CCc4cc(O)ccc4C3CC[C@]12C (some centres undefined) | 22.3% | 15.8 µM [rising, partial curve] | 34.1% | 
39 | Nc1ncn(C2OC(CO)C(O)C2O)c(=O)n1 (centres undefined) | 14.5% |  | 19.7% | 3.16 µM [rising, partial curve, poor fit]
40 | CCCC[C@H]1C(=O)N(c2ccccc2)N(c2ccc(O)cc2)C1=O | -19.5% | 15.8 µM [falling, single point] | -45.7% | 
41 | COc1ncc2nc(C)c(=O)n(Cc3ccc(F)cc3)c2n1 | 21.9% | 1 µM [rising, full curve, poor fit] | 23.5% | 
42 | COC(=O)N1CCC2(CC1)CN(C(=O)Nc1ccc(OC)cc1)C2 | 20.6% | 0.0141 µM [rising, full curve, poor fit] | 30.3% | 
43 | CC(=O)N1CCC2(CCCN(Cc3nccs3)C2)CC1 | 25.4% | 3.55 µM [rising, full curve, poor fit] | 34.5% | 
44 | O=c1cc(-c2cccc(O)c2)oc2cccc(O)c12 | 79.1% |  | 101% | 15.8 µM [rising, partial curve, poor fit]
45 | COc1ccc(Oc2ncc3nc(-c4ccc(F)cc4)c(=O)n(C[C@H]4CCCO4)c3n2)cc1 | -14.8% | 39.8 µM [falling, single point] | -64.3% | 
46 | CC(=O)OCC(=O)[C@@]1(O)CCC2C3CCC4=CC(=O)C=CC4(C)C3C(O)C[C@]21C (some centres undefined) | 14% | 28.2 µM [rising, single point] | 30.7% | 
47 | COc1ccc2c3c1OC1CC(O)C=C[C@@]31CCN(C)C2 (some centres undefined) | 22.3% | 7.94 µM [rising, partial curve, poor fit] | 36.4% | 
48 | CCCCCCCC(=O)O[C@H](CC(=O)O)C[N+](C)(C)C | 15% | 17.8 µM [rising, single point] | 39.3% | 
49 | CC1(C)CC[C@]2(C(=O)O)C(O)C[C@@]3(C)C(=CCC4[C@@]5(C)CCC(O)C(C)(C)C5CC[C@@]43C)C2C1 (some centres undefined) | 6.57% | 28.2 µM [rising, partial curve, poor fit] | 39.5% | 
50 | Cc1nc2cncnc2n(Cc2ccc(F)cc2)c1=O | 28.3% | 2.24 µM [rising, full curve, poor fit] | 32.5% | 
51 | COCCn1c(=O)c(-c2cccc(C#N)c2)nc2cnc(N3CCOCC3)nc21 | 33% |  | 29.6% | 0.891 µM [rising, full curve, poor fit]
52 | COCCn1c(=O)c(-c2ccccc2)nc2cnc(N3CCNCC3)nc21 | 25% | 14.1 µM [rising, partial curve, poor fit] | 34.8% | 
53 | CC(C)NC(=O)N1CC[C@@]2(CCCN(C(=O)c3cccc(F)c3)C2)C1 | 2.02% | 2 µM [rising, partial curve] | 9.05% | 
